From the supplement of paper PMC3334620 come the findings set out here.

Over roughly 33,000 sequences, “E-score (-0.5 to 0.5)” has its median near -0.053; the highest 2% begin near 0.37. This is one part of the list.

Sequence of UniProt P0CE41 (P0CE41 whole entry, the tested form may be a part): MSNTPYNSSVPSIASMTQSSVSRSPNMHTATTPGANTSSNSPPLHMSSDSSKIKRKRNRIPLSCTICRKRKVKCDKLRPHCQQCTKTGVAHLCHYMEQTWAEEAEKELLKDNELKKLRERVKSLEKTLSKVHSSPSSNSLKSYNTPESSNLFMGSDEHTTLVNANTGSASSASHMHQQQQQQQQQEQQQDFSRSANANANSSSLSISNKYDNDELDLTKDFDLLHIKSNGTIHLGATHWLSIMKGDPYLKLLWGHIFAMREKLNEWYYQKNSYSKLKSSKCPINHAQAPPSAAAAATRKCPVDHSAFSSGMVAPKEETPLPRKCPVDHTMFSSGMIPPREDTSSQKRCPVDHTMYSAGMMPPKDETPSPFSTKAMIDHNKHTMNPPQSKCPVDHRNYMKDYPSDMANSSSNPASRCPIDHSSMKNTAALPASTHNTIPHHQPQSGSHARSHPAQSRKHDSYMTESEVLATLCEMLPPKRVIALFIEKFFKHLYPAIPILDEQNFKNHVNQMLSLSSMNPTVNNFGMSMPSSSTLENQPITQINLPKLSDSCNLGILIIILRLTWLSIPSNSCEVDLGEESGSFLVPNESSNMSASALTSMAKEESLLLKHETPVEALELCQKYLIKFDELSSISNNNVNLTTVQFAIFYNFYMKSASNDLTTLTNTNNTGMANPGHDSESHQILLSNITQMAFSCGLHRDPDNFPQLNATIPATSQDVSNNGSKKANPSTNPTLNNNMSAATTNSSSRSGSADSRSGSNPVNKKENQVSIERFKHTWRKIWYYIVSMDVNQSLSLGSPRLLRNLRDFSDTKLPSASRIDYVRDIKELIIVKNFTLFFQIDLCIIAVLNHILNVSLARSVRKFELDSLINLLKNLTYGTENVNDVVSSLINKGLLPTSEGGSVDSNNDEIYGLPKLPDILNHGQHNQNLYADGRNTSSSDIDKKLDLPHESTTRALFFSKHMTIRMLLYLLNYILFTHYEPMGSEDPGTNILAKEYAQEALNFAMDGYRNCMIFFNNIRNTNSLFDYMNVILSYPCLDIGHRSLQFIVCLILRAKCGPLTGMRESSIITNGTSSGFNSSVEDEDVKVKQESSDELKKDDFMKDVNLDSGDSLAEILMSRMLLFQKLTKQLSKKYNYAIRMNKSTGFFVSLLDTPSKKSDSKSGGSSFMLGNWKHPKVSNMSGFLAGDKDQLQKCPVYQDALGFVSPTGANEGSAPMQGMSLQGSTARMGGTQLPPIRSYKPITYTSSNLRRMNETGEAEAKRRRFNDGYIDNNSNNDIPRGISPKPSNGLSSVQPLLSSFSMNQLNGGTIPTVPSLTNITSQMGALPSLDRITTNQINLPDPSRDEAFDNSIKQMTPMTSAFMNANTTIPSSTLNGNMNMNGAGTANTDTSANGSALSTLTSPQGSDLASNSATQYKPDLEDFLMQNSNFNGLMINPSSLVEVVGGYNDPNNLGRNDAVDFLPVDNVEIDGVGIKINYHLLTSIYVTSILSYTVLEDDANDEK

In the test the target is Hap1 (UniProt P0CE41). The test is described as follows: PBM E-score (8-mer binding enrichment) (E-score (-0.5 to 0.5)); higher = stronger / more preferred TF binding; most listed sequences are background and not binding sites. The following applies: protein concentration: 200 nM; construct: GST-DNA-binding domain. Summed up:
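PURExpress in vitro transcription/translation supplied GST-tagged yeast transcription factors, either full-length or DNA-binding domain. Applied at about 100-200 nM to universal all-10-mer Agilent arrays double-stranded by primer extension, the bound protein was detected with fluorescent anti-GST. E-scores, modified Wilcoxon-Mann-Whitney statistics, were given by the Universal PBM Analysis Suite to ungapped eight-base words pooled with their reverse complements after masliner normalisation.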
Take CCGGCTAG: the “PBM E-score” value worked out at 0.223. With GGGAGAAA the figure was 0.0441. With GTGTATTA the figure was 0.0196; with AGTGCACT, -0.0451; with ACTGAACT, -0.12. As for AGGCTGCA, the “PBM E-score” value was -0.28. The result for GACCTATA reads 0.0889; that for GGCGCCCC, 0.095; that for CGAGACGA, 0.0521. As to ATTAGGCA, the “PBM E-score” value was -0.0817. For AGGAATAT, the “PBM E-score” value was -0.0307. With CCTATCAC the figure was -0.0184; with GCTTGCAC, -0.0999. For the sequence AAACCGGC, the “PBM E-score” value worked out at 0.338. On to ACGCTCCT, for which the “PBM E-score” value is -0.35. With CTGTCTCC the figure was 0.0431.

As to TACAGGTA, the “PBM E-score” value is -0.149. The result for AAATCACT reads -0.138; that for TGCTGAAA, -0.0894; that for AGCGCATC, -0.00234. With CATCGCGG the figure was 0.0723; with ATGCCATG, -0.134; with AACATCTC, -0.029. In the case of GCTCCAAC, the “PBM E-score” value is -0.0259.

In the case of GTAACCTA, the “PBM E-score” value came out at 0.123. The result for ACGATCAG reads -0.2; that for CTGAGCCA, -0.151. With TGAAAGCA the figure was -0.141; with AACGAAAC, -0.164.

Regarding GGCGTCAC, the “PBM E-score” value was -0.0838. On to GGGCCCTA, for which the “PBM E-score” value is -0.0484. The result for AAACTTTG reads -0.0327; that for ATGTTAAG, -0.0437; that for ACGAGCTA, -0.108. As to GAAATCCC, the “PBM E-score” value worked out at 0.134.

On to GGTCTGGA, for which the “PBM E-score” value was -0.079. With AGGATTAC the figure was -0.18; with ATCGCCAC, 0.187; with CTTCCACA, -0.181. Consider CCTAAAAC, for which the “PBM E-score” value is -0.0449. With TACTCATA the figure was -0.204; with CAGGCGCC, 0.0461. With GCCATAAC the figure was -0.0896; with AAGCGCAC, 0.146; with CTTGATAC, -0.266.

Consider GAGCACTC, for which the “PBM E-score” value stood at 0.0309.

With GGACACCA, the “PBM E-score” value is -0.0111. In the case of ACATAGGG, the “PBM E-score” value is -0.123. Consider GCTTTACA, for which the “PBM E-score” value is -0.00584. Regarding CGGATCAG, the “PBM E-score” value came to 0.259. Take GATAAACA: the “PBM E-score” value stood at 0.122. Consider ACGGGTAT, for which the “PBM E-score” value came out at 0.0846. With CAACATCG the figure was 0.194; with GGCAACTA, -0.00809; with GCAAACAA, -0.0796. The result for AGTCAAAC reads -0.073. With CTCGTTAA the figure was -0.0743; with AATTCGGA, 0.414. In the case of CAACGTTG, the “PBM E-score” value was -0.108. With GGCGTCCA the figure was -0.0278; with ATCTTTGC, -0.116; with ACGTTTAA, -0.141. In the case of CAACTAAA, the “PBM E-score” value is -0.0958.

On to AACGAGTT, for which the “PBM E-score” value is -0.237. Consider CCCATTGA, for which the “PBM E-score” value was -0.142. As for GCCATCAC, the “PBM E-score” value was -0.0971. The result for ATGTATGA reads -0.271; that for GCACTCTA, -0.126; that for CGAGGCTA, 0.0332. As to CAAGTAAC, the “PBM E-score” value was -0.221. The result for CAACCAGA reads -0.154.

Take AGCCTTGG: the “PBM E-score” value was -0.244.

On to CCCAGAAG, for which the “PBM E-score” value is -0.0844. For AGAATACT, the “PBM E-score” value is -0.161.

Take AACTAGTA: the “PBM E-score” value was -0.298.

On to AAGTGTCC, for which the “PBM E-score” value was 0.164. For the sequence GCATGACC, the “PBM E-score” value is -0.0947. GACCGTCA: the “PBM E-score” value is -0.0568.

Take TATGAATA: the “PBM E-score” value is -0.0221. On to AGTACCTA, for which the “PBM E-score” value was -0.186. Regarding AGTTAACA, the “PBM E-score” value came to 0.0988.

Consider GTAAACAC, for which the “PBM E-score” value stood at 0.128. With CACTTTCA, the “PBM E-score” value is -0.168. As for ATAGGGCA, the “PBM E-score” value was -0.197. With CCATACCG the figure was 0.179.

Consider AACAGCAT, for which the “PBM E-score” value amounted to 0.00086.
